Source: PubChem BioAssay AID504845 (National Center for Advancing Translational Sciences (NCATS), 2011)
Where “and” joins values, the source holds several entries; their conditions need not be identical. Identical values can stand only once. Hit rate of the full screen: of about 390,000 compounds, about 150 (0.038%) were called active. This list was built around the results that the source calls inconclusive (neither active nor inactive); the mix of calls is not that of the screen. The call rests on the fitted dose curve; in most records, active means well fitted inhibition curve with a large enough effect; inconclusive means small, poorly fitted or top-dose-only effect; inactive means no such curve, though single readings can be large or run the other way. Potencies beside an inconclusive call are fits to weak or partial responses and may not hold up.

These molecules were tested against Regulator of G-protein signaling 4 (Homo sapiens) (UniProt P49798) (assay: Inhibitors of Regulator of G Protein Signaling (RGS) 4: qHTS). Details: Transcreener GDP fluorescence polarization, RGS4-accelerated GTP hydrolysis; series mostly up to 114 µM; activity change, negative = inhibition: at the top concentration.
Sequence of UniProt P49798 (P49798 whole entry, looked up, the tested form may be a part): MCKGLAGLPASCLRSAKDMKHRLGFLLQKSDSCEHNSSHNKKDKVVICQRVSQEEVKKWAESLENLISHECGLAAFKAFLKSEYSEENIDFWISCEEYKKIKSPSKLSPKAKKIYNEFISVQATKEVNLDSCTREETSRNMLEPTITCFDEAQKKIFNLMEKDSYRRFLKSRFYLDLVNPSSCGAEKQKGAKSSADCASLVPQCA
Text: G-protein-coupled receptors (GPCRs) are well-established targets for drug discovery and development. Members of the "regulator of G-protein signaling" (RGS)-protein superfamily have recently emerged as critical modulators of specific GPCR signaling pathways. […] Combining specific RGS domain inhibitors with existing GPCR agonists should potentiate cellular responses and could also increase the specificity of action of existing therapeutics. Small molecule modulators of RGS domain activity should also have clinical utility in inhibiting or potentiating the actions of endogenous GPCR agonists. In particular, the diversity of RGS proteins with highly localized and dynamically regulated distributions in the human brain makes this family of proteins attractive targets for pharmacotherapy of central nervous system (CNS) disorders such as Parkinson's disease, schizophrenia, and anxiety.
This assay was used to screen the NIH Molecular Libraries Small Molecule Repository (MLSMR) in order to identify a small molecule that inhibits RGS4.
NIH Chemical Genomics Center [NCGC]
NIH Molecular Libraries Probe Centers Network [MLPCN]
Assay Submitter (PI): David Siderovski, University of North Carolina Chapel Hill (School of Medicine)
Two microliters of 500nM (2x working concentration) is dispensed into black medium-binding solid-bottom Kalypsys plates. Then with the Kalypsys pintool 23nl of control and compounds are transferred; the control compound is […] CCG-4986 (working concentration). After a 10 minute incubation at room temperature 2ul of antibody is added with the Kalypsys dispenser; (-)RGS4/Transcreener GDP solution in columns 3 and 4 which consisted of 10nM (2x working concentration) Alexa633, 20uM GTP, and 20 ug/ml GDP antibody and (+)RGS4/Transcreener GDP solution in columns 1,2, and 5 to 48 which consists of 900nM RGS4 (2x working concentration), 10nM Alexa633, 20 ug/ml GDP antibody. The plate is centrifuged at 1000 RPM for 15 seconds to remove any possible bubbles and then incubated for 5 minutes at ambient room temperature. An initial fluorescent polarization read (620 nm/688 nm) is performed on the Envision before the plate is incubated for 90 minutes at 30 deg C at a relative humidity of 80%. The plate is once more centrifuged at 1000 RPM for 15 seconds and another Envision fluorescent polarization (620 nm/688 nm) read is carried out.
Further: nearly all actives have a fitted effect of over 75% in size.
On the % scale 0 is the no-effect control and ±100 the full control effect; potency means the concentration at half of the fitted maximal effect; tags describe the fitted curve by direction and shape.

Compound	activity change, negative = inhibition	Potency
Cc1cccc(NS(=O)(=O)c2cccc(C(=O)NCC3(N4CCCCC4)CCCCC3)c2)c1	inactive: -14.1%	
Brc1cccc(-c2nnn3c2nc(NCc2ccc4c(c2)OCO4)c2ccccc23)c1	inactive: 18.8%	
Cc1cc(N2CC(C)OC(C)C2)nc2ccccc12 (stereo not given)		inconclusive: 79.4 µM [inhibitor, partial curve, poor fit]
O=C(Nc1ccc(F)cc1)Nc1nnc(Cc2ccccc2F)s1		inconclusive: 50.1 µM [inhibitor, partial curve, poor fit]
O=C(NNC(=O)c1ccc(Br)s1)c1csc(N2CCOCC2)n1		inconclusive: 50.1 µM [inhibitor, partial curve, poor fit]
Clc1cncc(Cl)c1NNc1c2ccccc2nc2ccccc12	inactive: -30.3%	
O=S(=O)(NNc1ccc(Cl)nn1)c1ccc(F)cc1		inconclusive: 70.8 µM [inhibitor, partial curve, poor fit]
COC(=O)c1c(NC(=O)Cc2ccccc2)sc2c1CC(C)(C)NC2(C)C		inconclusive: 50.1 µM [inhibitor, partial curve, poor fit]
CCN(CC)C(=O)c1ccc2nc(-c3ccccc3)c(-c3ccccc3)nc2c1	inactive: 3.41%	
Cc1c(N=Cc2cccs2)c(=O)n(-c2ccccc2)n1C	inactive: 14.2%	
O=[N+]([O-])c1cc(C(F)(F)F)cc([N+](=O)[O-])c1NN=C1CCCCC1		inconclusive: 25.1 µM [inhibitor, full curve, poor fit]
O=C(Nc1nccs1)c1ccc(-c2cccc([N+](=O)[O-])c2)o1		inconclusive: 31.6 µM [inhibitor, full curve, poor fit]
O=C(Nc1ccc(-c2n[nH]c(=S)o2)cc1)c1ccccc1		inconclusive: 100 µM [inhibitor, partial curve, poor fit]
CCCCC(CC)CNC(=O)c1ccc2c(=O)n(Cc3ccc(OC)cc3)c(=O)[nH]c2c1 (stereo not given)	inactive: -7.51%	
Cn1cnnc1SCC(=O)c1ccc2c(c1)CCCC2		inconclusive: 35.5 µM [inhibitor, partial curve, poor fit]
CC(=O)Nc1ccc(S(=O)(=O)/N=C2/NC(=O)/C(=C\c3ccco3)S2)cc1		inconclusive: 79.4 µM [inhibitor, single point]
c1ccc2c(N3CCCCC3)nc(N3CCCC3)nc2c1	inactive: -0.225%	
CC1C/C(=C/c2ccncc2)C(=O)/C(=C/c2ccncc2)C1 (stereo not given)		inconclusive: 31.6 µM [inhibitor, full curve, poor fit]
Cc1cc(C)cc(OCc2nnc(SCC(=O)NC3CC3)n2C)c1		inconclusive: 100 µM [inhibitor, single point]
Cc1cc(C2=NNC(=NC3CC3)SC2)c(C)n1-c1ccccc1F	inactive: -21.9% [at 11.4 µM]	
CCOc1cc(CNCCc2ccccc2)ccc1OCC(=O)NC(C)(C)C		inconclusive: 20 µM [inhibitor, full curve, poor fit]
CC1=NN(c2ccccc2)C(=O)/C1=C/C=C/C=C/N(C)C	inactive: -25.7%	

Compound	activity change, negative = inhibition	Potency
CCOC(=O)C1=C(Cc2ccc(OC)cc2)C(=O)c2ccccc2C1=O		inconclusive: 20 µM [inhibitor, full curve, poor fit]
COc1ccccc1N1CCN(CCn2c(=O)c3c(c4ccccc4n3C)n(C)c2=O)CC1		inconclusive: 84.4 nM [inhibitor, full curve, poor fit] and inconclusive: 119 nM [inhibitor, partial curve, poor fit]
COc1ccc(NCc2nnc(SCC(=O)c3ccc(OC)cc3)o2)cc1		inconclusive: 50.1 µM [inhibitor, partial curve, poor fit]
O=C(/C=C/c1ccc(Br)o1)OCc1nc2ccsc2c(=O)[nH]1		inconclusive: 17.8 µM [inhibitor, full curve, poor fit]
O=C(O)CC1S/C(=N/N=C/c2ccc(-c3ccc(Cl)c([N+](=O)[O-])c3)o2)NC1=O (stereo not given)	inactive: -52.9%	
CCOC(=O)C1CCCN(Cc2nc(N)nc(Nc3ccccc3)n2)C1 (stereo not given)	inactive: -17.5%	
COc1ccc(/C=C2/SC(=S)N(n3c(C)ccc3C)C2=O)cc1		inconclusive: 79.4 µM [inhibitor, partial curve, poor fit]
COc1ccc(N2CCN(c3oc(-c4ccco4)nc3C#N)CC2)cc1		inconclusive: 79.4 µM [inhibitor, single point]
O=C1CCC(C(=O)OCC(=O)c2ccccc2)N1 (stereo not given)		inconclusive: 50.1 µM [inhibitor, partial curve, poor fit]
CCCCN(C(=O)C1CSC2(C)CCC(=O)N12)c1c(N)n(CC(C)C)c(=O)[nH]c1=O (stereo not given)		inconclusive: 79.4 µM [inhibitor, partial curve, poor fit]
O=C1CC(c2ccccc2)Cc2[nH]c(=O)c(-c3nc(-c4ccc(Cl)cc4)cs3)cc21 (stereo not given)	inactive: 1.31%	
COC(=O)c1c(NC(C)=O)sc(C(=O)Nc2ccccc2OC)c1C		inconclusive: 28.2 µM [inhibitor, full curve, poor fit]
Cc1ccc(S(=O)(=O)N2[C@@H](c3ccc4c(c3)OCO4)C(C(=O)O)=C[C@H]2CC2CCCC2)cc1	inactive: 23.9%	
O=S(=O)(c1ccc(NC(=S)NC2CCCC2)cc1)N1CCCC1		inconclusive: 50.1 µM [inhibitor, partial curve, poor fit]
CC(C)N(C(=O)Nc1ccc2nsnc2c1)C(C)C		inconclusive: 50.1 µM [inhibitor, partial curve, poor fit]
CCCOc1ccc(/C=C2/C(=O)ON=C2C)cc1OCC		inconclusive: 44.7 µM [inhibitor, partial curve, poor fit]
Cn1c(-c2ccc(F)cc2)cnc1SCC(=O)N1CCCc2ccccc21		inconclusive: 100 µM [inhibitor, single point]
CC(=O)N1CCN(S(=O)(=O)c2cccc(C(=O)NCCC3=CCCCC3)c2)CC1		inconclusive: 89.1 µM [inhibitor, single point]
COc1ccc(CN2C3CCCC2CC(NC(=O)Nc2cccc(C)c2)C3)cc1 (stereo not given)	inactive: 56.7%	
COC(=O)c1c(NC(=O)CN2CCCc3ccccc32)sc(C)c1C		inconclusive: 89.1 µM [inhibitor, single point]
Cc1ccc(NC2Sc3ccccc3NC2=O)cc1 (stereo not given)		inconclusive: 79.4 µM [inhibitor, partial curve, poor fit]
Cc1cc(C)c(C(=O)N2CCCC(Nc3ccc(F)cc3)C2)o1 (stereo not given)	inactive: -9.42%	

Compound	activity change, negative = inhibition	Potency
COc1ccc(/C=C2/C(=O)OCc3cc(OC)c(OC)cc32)c(OC)c1		inconclusive: 79.4 µM [inhibitor, single point]
CCOc1cc(S(=O)(=O)NCc2ccc3c(c2)OCO3)c(C)cc1C		inconclusive: 89.1 µM [inhibitor, single point]
COc1ccccc1-c1nc(S(=O)(=O)c2ccccc2)c(N2CCCCC2)o1		inconclusive: 17.8 µM [inhibitor, full curve, poor fit]
Cn1c(NCc2ccc(Cl)cc2)nc2ccccc21	inactive: -4.05%	
Cc1ccc(S(=O)c2ccc(NC(=O)C3CC3)cc2C#N)cc1 (stereo not given)		inconclusive: 20 µM [inhibitor, full curve, poor fit]
CCOc1c(Nc2ccc(C(C)C)cc2)c(=O)c1=O	inactive: -7.59%	
O=C(Cn1nc(CNc2ccc(Cl)cc2)[n+]2c1CCCCC2)c1ccc(Cl)cc1		inconclusive: 28.2 µM [inhibitor, partial curve, poor fit]
Cc1ccc(NC(=O)CCS(=O)(=O)c2cc3c4c(c2)CCN4C(=O)CC3)c(C)c1	inactive: -9.07%	
CCCCN(C(=O)CSc1nnc(Nc2ccc(C)c(C)c2)s1)c1c(N)n(Cc2ccccc2)c(=O)[nH]c1=O		inconclusive: 89.1 µM [inhibitor, single point]
CCCN1C[C@H](CSC)C[C@@H]2c3cccc4[nH]cc(c34)C[C@H]21		inconclusive: 37.7 µM [inhibitor, partial curve, poor fit]
O=C(NC(=S)NNC(=O)c1ccccc1[N+](=O)[O-])c1ccc(Br)cc1		inconclusive: 100 µM [inhibitor, single point]
COc1ccc(/C=C/c2ccncc2)cc1	inactive: 12.1%	
Cc1ccc(C)c(N(CC(N)=O)S(C)(=O)=O)c1		inconclusive: 50.1 µM [inhibitor, partial curve, poor fit]
CCOc1cc(C2Nc3cccc4cccc(c34)N2)ccc1O		inconclusive: 70.8 µM [inhibitor, single point]
CCN(CC)c1ccc(/C=C2\C(=O)N(c3nnc(C)c(=O)[nH]3)N=C2C)cc1		inconclusive: 79.4 µM [inhibitor, partial curve, poor fit]
C=C(C)CSC1=C(C#N)C(c2ccccc2Cl)CC(=O)N1 (stereo not given)		inconclusive: 44.7 µM [inhibitor, partial curve, poor fit]
CN1CCN(C(c2ccccn2)c2cc(Cl)c3cccnc3c2O)CC1 (stereo not given)		inconclusive: 50.1 µM [inhibitor, partial curve, poor fit]
O=C(/C=C/c1ccccc1)CC(O)(c1ccccc1)C(F)(F)F (stereo not given)		inconclusive: 44.7 µM [inhibitor, partial curve, poor fit]
O=C(Nc1cccc(Cl)c1)c1cnc[nH]1		inconclusive: 89.1 µM [inhibitor, single point]
Cc1cc(/C=C2\SC(=S)NC2=O)c(C)[nH]1	inactive: -30.2%	
Cc1cc(O)c2c(c1O)C(=O)[C@]13C(=C2O)C(=O)[C@@H]2[C@@H](O)[C@H]1[C@@H]1[C@H](O)[C@H]3C(=O)C3=C(O)c4c(O)cc(C)c(O)c4C(=O)[C@]312		inconclusive: 79.4 µM [inhibitor, partial curve, poor fit]
